Data on 167 variants can be found in the RNAGym collection of RNA variant scans (doi:10.7554/elife.90254).

Read counts are not given, so values of variants with three or more changes are uncertain.

To fix the notation:
B1: LINE1-mini (parent)
chain: GGCAGAGCUCAACACAGCGUGGCAAAGUGGCUGUGGCUAGACUGCC

In this data set the parent is B1. Briefly: self-cleavage, relative activity (ratio to wild type); higher = more cleavage; in vitro, sequencing; the parent is a self-cleaving ribozyme.
For G2C G27A U34G, the self-cleavage came to 0.01.

As for G2C C10G G35C, the self-cleavage was 0.01.

Take G2C G21C A26U: the self-cleavage is 0.05.

For the variant G2C C13U A26U G33U, the self-cleavage came out at 0.08.

G2C C10U G19C U20C G30U A39G A41C G44A: the self-cleavage was found to be 0.04.

Regarding G2C G17A G40C U43A, the self-cleavage was found to be 0.05.

On to G2C G17U U32G G33U, for which the self-cleavage was 0.11.

Turning to G2C C3U G19U G40U G44C, the self-cleavage was determined as 0.09.

Consider G2C G5C U9A A16U C42U, for which the self-cleavage was determined as 0.01.

G2C C3A G22U A24U: the self-cleavage was 0.96.

With G2C G19C C31G A39C, the self-cleavage turned out to be 0.01.

Turning to G2C C3G G7C G30U G36C, the self-cleavage amounted to 0.12.

G2C A25G U34A: the self-cleavage turned out to be 0.11.

Regarding G2C C15A C37A C42A, the self-cleavage came to 0.02.

As for G2C C8A C45A, the self-cleavage turned out to be 0.14.

As for G2C C10A C23U G29U C45U, the self-cleavage stood at 0.01.

For the variant G2C C18U G33A, the self-cleavage was 0.05.

G2C C3A A16C G21U G27A C37U U38A: the self-cleavage stood at 0.02.

Take G2C G17C G19C G40U C45U: the self-cleavage stood at 0.01.

For the variant G2C C3U A4U C45G, the self-cleavage is 0.16.

In the case of G2C C10G G30U, the self-cleavage came to 0.01.

As for G2C C10U A26G C31G G35A C37U, the self-cleavage came out at 0.04.

As for G2C C8A G19A G29U G33U C46A, the self-cleavage came to 0.04.

Consider G2C C15A C37A G44A, for which the self-cleavage was 0.17.

With G2C A39G G44U, the self-cleavage is 0.33.

With G2C G29U G33A G44A, the self-cleavage stood at 0.33.

For the variant G2C G5A G30A C45A, the self-cleavage is 0.03.

For G2C G7U C15U G17U C18U, the self-cleavage was 0.04.

Regarding G2C A26C U34G, the self-cleavage was 0.01.

For the variant G2C C3A G7C, the self-cleavage was 0.1.

Take G2C G7U C18A G19U A25C A39C: the self-cleavage was 0.18.

With G2C C10U A24G A26U U28G, the self-cleavage stood at 0.01.

As for G2C C18U G27U, the self-cleavage stood at 0.05.

As to G2C C15A G29A, the self-cleavage came to 0.02.

For the variant G2C G7A A11U A16U G35C G36C, the self-cleavage was 0.

With G2C C3U G33C G35C C37G, the self-cleavage was 0.06.

In the case of G2C C8U G21A G40A, the self-cleavage came out at 0.2.

With G2C C15A G30A U34C G35A C37A A41G, the self-cleavage came to 0.04.

For G2C C3A C8G G21C U38A, the self-cleavage is 0.06.

In the case of G2C A25U A26G U28G, the self-cleavage worked out at 0.03.

Turning to G2C G5U A14C A16G U32A, the self-cleavage was determined as 0.01.

G2C G19A A24C: the self-cleavage is 0.1.

For the variant G2C C13U U38G C46A, the self-cleavage is 0.03.

As to G2C C3A C8U C10G G19U U38C, the self-cleavage turned out to be 0.01.

For the variant G2C C3G C8U A26G C31G, the self-cleavage turned out to be 0.11.

In the case of G2C C15A G30C C31U, the self-cleavage stood at 0.14.

Consider G2C C31U G33U C42U, for which the self-cleavage was 0.02.

In the case of G2C G29U U38C, the self-cleavage came to 0.18.

Turning to G2C G33U C37A, the self-cleavage amounted to 0.03.

Consider G2C G5U C10A A16G, for which the self-cleavage worked out at 0.01.

For the variant G2C G29C U43G, the self-cleavage worked out at 0.

On to G2C C3A U32C C46U, for which the self-cleavage amounted to 0.04.

With G2C C15A A25U U43C, the self-cleavage is 0.02.

Take G2C C15U U28G C37U G40C: the self-cleavage worked out at 0.02.

On to G2C G27A A41U, for which the self-cleavage came to 0.24.

With G2C G7U C18U G22A G30C G33A, the self-cleavage amounted to 0.01.

As to G2C G19C A26G, the self-cleavage came to 0.

As for G2C G5A C8A G22U C37A A41G, the self-cleavage was found to be 0.38.

Take G2C C13G C15U: the self-cleavage was 0.23.

Consider G2C C3U G33A, for which the self-cleavage came to 0.05.

For the variant G2C C8G G19U C23U G29U U32A U34A, the self-cleavage is 0.1.

On to G2C C8A C18U, for which the self-cleavage was 0.16.

Take G2C C15U U38G: the self-cleavage was determined as 0.06.

As for G2C C3U G5A, the self-cleavage was determined as 0.07.

In the case of G2C G21A C46G, the self-cleavage is 0.6.

Take G2C A26G G33C G36U C46A: the self-cleavage is 0.04.

As to G2C C10U G40A U43C, the self-cleavage is 0.

Consider G2C C8U A12G, for which the self-cleavage came out at 0.19.

On to G2C A39G A41U, for which the self-cleavage is 0.01.

Consider G2C G19U G21U, for which the self-cleavage was 0.08.

On to G2C C31G G33C C37A, for which the self-cleavage came to 0.05.

Consider G2C G7C C8A G36C C37U, for which the self-cleavage turned out to be 0.13.

With G2C C8U U28C C45G, the self-cleavage is 0.07.

On to G2C C3G G21U G44U, for which the self-cleavage worked out at 0.08.

Consider G2C C18A G21U U34C G35C, for which the self-cleavage stood at 0.03.

On to G2C C10A A14C G33A, for which the self-cleavage was 0.

G2C G7A C8G: the self-cleavage was found to be 0.08.

Consider G2C C10G U34G, for which the self-cleavage came out at 0.

As for G2C C13A U20A C31U G36C, the self-cleavage was 0.32.

Turning to G2C A26G G29A G40C, the self-cleavage came out at 0.08.

Consider G2C G35A A39G, for which the self-cleavage amounted to 0.53.

As to G2C C10U C13G A24U A26C, the self-cleavage came to 0.03.

Regarding G2C G21A G27U G40A, the self-cleavage was 0.01.

As for G2C G27U U34A C42U, the self-cleavage worked out at 0.02.

Take G2C C3U G40U: the self-cleavage was 0.24.

Regarding G2C G27A G30U G44U C45U C46U, the self-cleavage was found to be 0.04.

G2C G7U A12U A14C: the self-cleavage was 0.16.

For G2C C10A G21C A25U A26G C37G, the self-cleavage amounted to 0.01.

For the variant G2C A25G G29A U38A G40A, the self-cleavage turned out to be 0.03.

As to G2C C8U A14G C18A, the self-cleavage turned out to be 0.01.

For the variant G2C G7C U38A, the self-cleavage stood at 0.11.

With G2C C10G G22U, the self-cleavage came to 0.02.

For G2C C10U A24C, the self-cleavage amounted to 0.01.

For G2C G21C C31A C46U, the self-cleavage turned out to be 0.17.

G2C C3U A12C G30U: the self-cleavage was found to be 0.03.

Regarding G2C G29U C31G, the self-cleavage was determined as 0.02.

Take G2C C10G A25C C42A C46U: the self-cleavage amounted to 0.02.

As to G2C G7U U9G C15U G30A G36A G44U, the self-cleavage came out at 0.04.

As to G2C C8G G44C, the self-cleavage is 0.04.

As for G2C G5U G22A U28C G33C, the self-cleavage turned out to be 0.02.

Take G2C C10A U32C: the self-cleavage came to 0.

In the case of G2C G5U U32A U38A, the self-cleavage is 0.01.

Take G2C C18U U32A: the self-cleavage stood at 0.

Turning to G2C C10G C13A G22A, the self-cleavage stood at 0.04.

As to G2C A26U C42A, the self-cleavage was found to be 0.44.

As for G2C C18G G19U A39C, the self-cleavage is 0.07.

Consider G2C G5U U20A, for which the self-cleavage turned out to be 0.01.

Regarding G2C C10A A16C C18A G22U C23G A39G G40A, the self-cleavage came to 0.

As for G2C C13U G19A A39U C42A, the self-cleavage turned out to be 0.

For G2C C8U A14C C18U, the self-cleavage turned out to be 0.05.

On to G2C G7U U9A C23G, for which the self-cleavage turned out to be 0.17.

Consider G2C C10A A26C G36A, for which the self-cleavage stood at 0.03.

As for G2C C31G C42A, the self-cleavage came out at 0.01.

As to G2C C10U G19C G29U C31U G40U C45U, the self-cleavage is 0.

Regarding G2C G5U A25U, the self-cleavage stood at 0.03.

Consider G2C C8A A39G C42U, for which the self-cleavage was 1.83.

Take G2C C13A A14C U34C: the self-cleavage came to 0.08.

With G2C A25G G30C C42A, the self-cleavage worked out at 0.01.

As to G2C C8U A24U U32C G35A, the self-cleavage is 0.22.

Regarding G2C C31A C37U U38G A39U, the self-cleavage came to 0.12.

As to G2C G22C U38G A39G C45U, the self-cleavage was determined as 0.

Turning to G2C C8U C15G, the self-cleavage was 0.13.

For the variant G2C G5U A39U, the self-cleavage came out at 0.01.

In the case of G2C G19U G30U, the self-cleavage came to 0.16.

Turning to G2C G5C U20A A41C, the self-cleavage turned out to be 0.

For the variant G2C C3G G21U G40A, the self-cleavage stood at 0.07.

Consider G2C G7C C8U A26G A39G C45U, for which the self-cleavage was determined as 0.23.

On to G2C G17U G36A, for which the self-cleavage is 0.08.

For the variant G2C C10A A12C C18A G44A, the self-cleavage was 0.02.

G2C G33A A39G C45G: the self-cleavage was found to be 0.01.

For G2C G7A U9G G21A G22C, the self-cleavage stood at 0.09.

Take G2C G30U C42U G44C: the self-cleavage was determined as 0.02.

As to G2C G17A G36A C45A C46G, the self-cleavage came out at 0.04.

Take G2C G27C G30C C37U C46U: the self-cleavage is 0.02.

Regarding G2C C13U C23U C45U, the self-cleavage came out at 0.06.

With G2C C8A G21U, the self-cleavage is 0.03.

With G2C C10U C46U, the self-cleavage was 0.08.

As for G2C C3A A11G A16U G22A, the self-cleavage was 0.02.

With G2C C31A C45G, the self-cleavage was found to be 0.07.

For the variant G2C C13A A26U, the self-cleavage is 0.01.

G2C G29A C37A: the self-cleavage worked out at 0.02.

On to G2C G5A C13A A14U U20A C46U, for which the self-cleavage was found to be 0.03.

Turning to G2C G5U C10A A12U C15A, the self-cleavage turned out to be 0.04.

For the variant G2C G7A G44C, the self-cleavage worked out at 0.15.

With G2C A26C G33A A39C, the self-cleavage came to 0.02.

Regarding G2C C8G C45G, the self-cleavage stood at 0.25.

For the variant G2C C8A C31G U32C, the self-cleavage is 0.05.

G2C A26G G27C: the self-cleavage stood at 0.33.

Consider G2C A26G G27A, for which the self-cleavage was found to be 0.17.

On to G2C G5A U20G U43G, for which the self-cleavage came out at 0.

Turning to G2C C31U G36A, the self-cleavage was determined as 0.11.

For the variant G2C G27U C31A U43A, the self-cleavage is 0.05.

For the variant G2C C3U C15U C37U, the self-cleavage turned out to be 0.41.

Take G2C C8U C13G G27A: the self-cleavage came to 0.25.

Turning to G2C G19U G29C U34C, the self-cleavage is 0.01.

Take G2C C18A C31G: the self-cleavage turned out to be 0.03.

As to G2C C18A C31U, the self-cleavage came to 0.05.

Take G2C C3G C10U A14G G30A: the self-cleavage came out at 0.1.

As to G2C C3U C10A C15G G36C, the self-cleavage is 0.07.

As to G2C G17U G33C, the self-cleavage was found to be 0.03.

Turning to G2C C8A G27U, the self-cleavage worked out at 0.05.

As for G2C G7C A11U A25C, the self-cleavage worked out at 0.02.

G2C C3U C37G: the self-cleavage is 0.25.

Regarding G2C C23A U32A G33A, the self-cleavage amounted to 0.01.

In the case of G2C G22A A41U, the self-cleavage is 0.09.

On to G2C G5U C15G A25G, for which the self-cleavage worked out at 0.01.

Take G2C G22U C23A C42U: the self-cleavage is 0.
